# Screen size: about 340,000 compounds; about 6,900 (2%) were called active. Rule as the data show it: active = inhibition above about 30%; inactive = below that, where a call was filed. The entries are a selection whose mix differs from that of the whole data set. Where no call is shown, the source filed none. Some compounds were tested as several samples or in several runs, with calls that do not always agree.
# Molecular target: D(2) dopamine receptor (Homo sapiens) (UniProt P14416)
# Experiment: HTS Assay for Allosteric Antagonists of the Human D2 Dopamine Receptor: Primary Screen for Antagonists; also: 0% is about no effect
# Details: HEK293 TREx D2 cells, calcium flux, dopamine EC80; at 10 µM; stronger effect = higher value
# How it was run: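 Compounds are added to dye-loaded, induced HEK293 T-REx cells coupled to calcium release via D2; after a 3 min kinetic read an EC80 dopamine stimulus is given and fluorescence is recorded for 3 more min.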
# Chain of UniProt P14416 (P14416 whole entry, looked up): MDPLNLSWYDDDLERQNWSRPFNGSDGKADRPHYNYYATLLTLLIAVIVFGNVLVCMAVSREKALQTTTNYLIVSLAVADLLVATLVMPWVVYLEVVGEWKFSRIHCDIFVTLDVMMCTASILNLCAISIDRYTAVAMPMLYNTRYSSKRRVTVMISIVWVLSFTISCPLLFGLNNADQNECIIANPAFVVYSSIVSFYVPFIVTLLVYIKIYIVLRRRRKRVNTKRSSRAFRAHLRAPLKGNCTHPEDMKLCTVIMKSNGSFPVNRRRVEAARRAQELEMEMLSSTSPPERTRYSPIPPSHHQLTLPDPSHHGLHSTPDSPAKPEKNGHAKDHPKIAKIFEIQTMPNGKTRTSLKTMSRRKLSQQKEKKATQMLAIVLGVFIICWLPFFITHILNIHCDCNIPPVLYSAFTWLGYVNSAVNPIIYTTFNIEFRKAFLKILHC
row,SMILES,inhibition
1,CC(=O)c1nn(-c2ccc(OC(F)(F)F)cc2)nc1Nc1ccc(C)cc1,-17.1%
2,CC(CCc1ccccc1)NCC(O)COc1ccccc1 (stereo unspecified),active: 55.4%
3,Cc1cc(C)c(C)c(OCCNCc2ccccc2)c1,active: 75.1%
4,COc1ccccc1CNC(=O)CS(=O)Cc1nc(-c2ccc(OC)c(OC)c2)oc1C (stereo unspecified),-12.8%
5,CCCNCC(O)COc1ccccc1C(=O)CCc1ccccc1 (stereo unspecified),active: 35.1%
6,Cc1ccc(CCNC(=O)c2ccc(CSCc3ccccc3C)o2)cc1,26.6%
7,CCC1CN(C(=O)N2CCC(C(=O)O)CC2)c2cc(C)ccc2O1 (stereo unspecified),11.4%
8,Cc1ccc2nc(-c3ccc(NC(=O)COc4ccc(Cl)c(C)c4)cc3)sc2c1,5.58%
9,CCN(Cc1ccccc1)C(=O)C1CCN(S(=O)(=O)c2c(C)noc2/C=C/c2ccc(C)cc2)CC1,14.2%
10,COc1ccc(Nc2cc(C)c3cc(NC(=O)Cc4c(F)cccc4Cl)ccc3n2)cc1,10.2%
11,CCn1c(CN2CCCCC2)nc2cc(NC(=O)c3cccc([N+](=O)[O-])c3)ccc21,25.8%
12,Cc1cc(C)c[n+](-c2nc3ccccc3nc2C(=C=[N-])C#N)c1,active: 34.3%
13,COc1cc(-c2nc(C(N)=O)c3c(n2)n(-c2cccc(C)c2)c(=O)n3C)cc(OC)c1OC,-5.4%
14,N#Cc1cccc(NC(=O)C2CCN(c3nc(-c4ccc(Cl)cc4)no3)CC2)c1,-17.9%
15,Cc1ccc(CCNC(=O)CSCc2nc(-c3ccc(C)cc3)oc2C)cc1,0.019%
16,COC(=O)c1ccccc1NC(=O)c1ccc(=O)n(Cc2cccc(C)c2)c1,2.46%
17,Cc1ccc(CNC(=O)c2nn(C)c3c2CSc2ccc(C)cc2-3)cc1,-0.865%
18,CCOc1ccc(-c2nnc(SCC(=O)Nc3cc(C)ccc3OC)o2)cc1,6.5%
19,CC(C)c1ccc(NC(=O)Cn2c3ncccc3c(=O)n2-c2ccccc2)cc1,5.29%
20,CCn1c(=O)n(CC)c2cc(N3CCCC3)c(NC(=O)Nc3cc(C)cc(C)c3)cc21,11.5%
21,COc1ccccc1N1CCN(C(=O)c2ccc(Nc3nc4ccccc4n4nnnc34)cc2)CC1,14.9%

row,SMILES,inhibition
1,COc1ccc(S(=O)(=O)c2c(O)c(C)cc(NC(=O)c3ccccc3)c2C(C)C)cc1,-10%
2,Cc1cccc(-c2nnc(SCC(=O)N3CCCCC3)o2)c1,-19%
3,O=C(Nc1ccccc1F)c1oc2ccccc2c1NC(=O)c1c(F)cccc1F,15.8%
4,Cc1cccn2c(=O)cc(COc3cccc(NC(=O)c4cccc(Cl)c4)c3)nc12,3.88%
5,CNc1nc2c(c(=O)n(C)c(=O)n2C)n1CC(O)COc1ccc(OC)cc1 (stereo unspecified),11.8%
6,COc1ccc(NS(=O)(=O)c2ccc(-n3cccn3)cc2)cc1OC,-3.67%
7,Cn1nc(C(=O)NCCc2ccc(Cl)cc2)c2c1-c1ccccc1SC2,-0.553%
8,CN(C(=O)c1cc2nc(-c3ccc4c(c3)OCO4)cc(C(F)(F)F)n2n1)c1ccc(OC(F)(F)F)cc1,-8.97%
9,CCN(Cc1ccccc1)C(=O)Cn1c(=O)n(-c2cccc(C)c2)c(=O)c2c1c1cc(OC)ccc1n2C,-8.56%
10,CC(C)c1ccc(OCC(=O)NCC(c2ccc(Cl)cc2)N2CCOCC2)cc1 (stereo unspecified),-14%
11,Cc1nc2c(C(=O)NCCc3ccc(Cl)cc3)cnn2c(C)c1Cc1ccc(F)cc1,-0.273%
12,COc1ccc(N2C(N)=C(C#N)C(c3cc(CN4CCOCC4)cs3)C3=C2CCCC3=O)cc1 (stereo unspecified),15.1%
13,CC(C)NC(=O)C1CCN(C(=O)c2cnn(-c3ccccc3)c2-n2cccc2)CC1,4.57%
14,Cc1ccc(NS(=O)(=O)c2ccc3c(c2)C(C(C)C)C(=O)N3)cc1C (stereo unspecified),-3.18%
15,Cn1c(=O)cc(SCC(=O)N2CCN(Cc3ccc4c(c3)OCO4)CC2)c2ccccc21,active: 40.9%
16,CCN(CCCNC(=O)c1nn(-c2ccc(OC)c(Cl)c2)c(=O)c2c1c1ccccc1n2C)c1ccccc1,1.99%
17,CC1CCN(C(=O)Cn2c(SCC(=O)Nc3ccc(F)cc3)nc3ccccc32)CC1,6.1%
18,Cc1ccc(CN2CCN(C3CCN(S(=O)(=O)N(C)C)CC3)C(=O)C2=O)cc1,2.11%
19,COc1ccc(OC)c(CNC(=O)CSc2c3c(nc4cc(Cl)ccc24)CCCC3)c1,4.54%
20,Cc1cccc(NC(=O)Cn2c(=O)c3cccn3c3ccccc32)c1C,-14.1%
21,COc1ccc(-c2csc(-c3c(N)c(C(=O)c4ccccc4)n4ccccc34)n2)cc1OC,4.54%

row,SMILES,inhibition
1,COc1ccccc1N1CCN(C(=O)CSc2nc3ccccc3nc2Cc2ccc(C)cc2)CC1,3.21%
2,COc1cc(NS(=O)(=O)c2cc(Br)cc3c2N(C(=O)C2CC2)CC3)cc(OC)c1,15.3%
3,O=C(NCCC1=CCCCC1)c1ccc2c(c1)N(Cc1ccccc1)C(=O)c1ccccc1S2=O (stereo unspecified),-13.3%
4,CCn1c(SCC(=O)Nc2c(C)cccc2C)nnc1-c1nonc1NC(C)=O,9.24%
5,Cc1ccc(C(=O)N2CCCCC2CCN2CCCCC2)cc1 (stereo unspecified),-25.4%
6,COc1ccccc1CN1CC(C(=O)NCc2cccc(Cl)c2)CCC1=O (stereo unspecified),active: 36.1%
7,CCc1nn(CC(=O)NCCOC)c(=O)c2cc3cc(F)ccc3n12,-5.94%
8,O=C(Nc1cccc(C(F)(F)F)c1)Nc1ccc2snnc2c1,-3.33%
9,CCOC(=O)c1c(NC(=O)c2ccc(S(=O)(=O)N(CC)CC)cc2)sc2c1CCCCC2,2.87%
10,CCCN1CC23C=CC(O2)C(C(=O)O)C3C1=O (stereo unspecified),active: 47.6%
11,Cc1cc(S(=O)(=O)Nc2ccc(O)c(Sc3nc4ccccc4s3)c2)ccc1Cl,5.83%
12,CCc1ccc(CN(Cc2cn[nH]c2-c2ccc(OC)cc2)C(=O)Nc2ccc(Br)cc2)cc1,-3.03%
13,CN(C)c1ccc(C(CNS(=O)(=O)c2ccc(F)cc2F)N2CCOCC2)cc1 (stereo unspecified),-3.06%
14,Cc1ccc(CCNC(=O)CN(c2ccc(C(C)C)cc2)S(=O)(=O)c2c(C)nn(C)c2C)cc1,-2.25%
15,CCN(CC)C(=O)CSc1nc2cc3c(cc2c(=O)n1CCCC(=O)NCc1ccc(OC)cc1)OCO3,24.3%
16,CCCNC(=O)N1CCCN(S(=O)(=O)c2ccc3c(ccn3CC)c2)CC1,-1.26%
17,Cc1c(Cl)cccc1-c1ccc(/C=C(\C#N)c2nc3ccccc3[nH]2)o1,8.28%
18,Oc1ccc(CCNc2c3ccccc3nc3ccccc23)cc1O,active: 91.2%
19,CCCCOc1cccc(C(=O)N2CCN(CCc3ccncc3)CC2)c1,3.19%
